In the RNAGym collection of RNA variant scans (doi:10.7554/elife.90254) one finds self-cleavage data, which are given here for 167 variants.

Read counts are not given, so values of variants with three or more changes are uncertain.

B1: LINE1-mini (parent)
chain: GGCAGAGCUCAACACAGCGUGGCAAAGUGGCUGUGGCUAGACUGCC

This data set covers variants of B1. As to the kind of experiment: self-cleavage, relative activity (ratio to wild type); higher = more cleavage; in vitro, sequencing; the parent is a self-cleaving ribozyme.
Turning to G5U C23U C42A, the self-cleavage came to 1.04.
For the variant G5U G19A G44A C45U, the self-cleavage stood at 0.11.
The value for G5U G27C U28G was 0.06.
For G5U G29C C37U, the self-cleavage stood at 0.01.
With G5U A11U C18A A25U, the self-cleavage came to 0.04.
Turning to G5U G27A G35U C37A, the self-cleavage is 0.07.
For the variant G5U G22U G35A C45A, the self-cleavage was 0.04.
The value for G5U G7U C15U A25C was 0.13; that for G5U G27U U28G G40C was 0.03; that for G5U G36A G40U G44U was 0.07.
Regarding G5U C8U G40U, the self-cleavage came to 0.17.
With G5U A6U U9A, the self-cleavage stood at 0.12.
Consider G5U G7C C15U C23U, for which the self-cleavage was found to be 0.09.
On to G5C G27U C37A U38C G40U C46G, for which the self-cleavage stood at 0.03.
As for G5U A14C G35U A39C, the figure is 0.14.
With A6C A24G C31A G44U, the self-cleavage was 0.17.
Regarding G5U C8U G29U G30C G36C, the self-cleavage is 0.11.
In the case of G5U G21U G36A, the self-cleavage came out at 0.1.
As for G5U G19U G21A G29U U34C, the self-cleavage was 0.01.
As for G5U U9G C18G G22U C23A, the figure is 0.05; as for G5U U9A C10G U32G G44A, 0.02.
With G5U A14U G17A C18G C45G, the self-cleavage was 0.04.
As for G5C U9G G33C, the figure is 0.02.
As for G5U C8G G40A, the self-cleavage is 0.47.
With G5U C8A G35U, the self-cleavage came to 0.4.
Take G5U G17U C18A G19A G33U G35C: the self-cleavage came out at 0.04.
For the variant A6C A14C C15A G19U, the self-cleavage came out at 0.37.
On to G5U C8A G29U G35U, for which the self-cleavage is 0.38.
The value for G5U C8U A11G A16C G21A G33C was 0.02.
For the variant G5U C13U G40A, the self-cleavage amounted to 0.03.
For G5U A12G G19C C46A, the self-cleavage stood at 0.01.
As for G5U G17A A25U, the figure is 0.06; as for G5U C10A A16C A25U, 0.04.
Consider G5U U9G C13A U32G U34G, for which the self-cleavage is 0.03.
As for G5U G30C G35C C42U, the self-cleavage amounted to 0.07.
Regarding A6C A12C G21U A41U, the self-cleavage came out at 0.
In the case of G5U G19U A26C C46U, the self-cleavage stood at 0.03.
Regarding G5U G7U A11C C15U A16G U34C C42G, the self-cleavage is 0.01.
For the variant G5U C15U G19A G30C U34A, the self-cleavage came to 0.05.
Take G5U A12U C46G: the self-cleavage was determined as 0.01.
As for G5U G21C G40C, the figure is 0.04; as for G5U A12C G19U U34A A41U C46U, 0.01.
The value for G5C U9A A26G U32C was 0.03; that for G5U C8G U9C A12U A14C G36U was 0.02.
Regarding G5U C8G U28G A41U, the self-cleavage was 0.11.
As for G5U G17C U20C, the figure is 0.05; as for G5C U20G G35U G36A, 0.17.
As to G5U C10G G21U U38A G44U, the self-cleavage was found to be 0.
The value for G5U G22C A24C was 0.02; that for G5C U28A G44U C46U was 0.01; that for G5U A12C G17A was 0.01.
On to G5U G30A U34G, for which the self-cleavage worked out at 0.03.
With G5U C10A G19A U20A C31A, the self-cleavage was 0.03.
Consider G5C U43G G44U, for which the self-cleavage was determined as 0.01.
For G5U C31U C46A, the self-cleavage was found to be 0.03.
G5U C31A C37G C46G: the self-cleavage was determined as 0.
For the variant G5U G17U C31U U32G, the self-cleavage was 0.04.
As for A6C A24G A25G G29A A41G, the figure is 2.03.
As to A6C A12C C37G, the self-cleavage came out at 0.01.
The value for G5U G21C G36C was 0.02; that for G5C U32C C45A was 0.09; that for G5U G36A G40U was 0.49.
For G5U A16G C23G, the self-cleavage came out at 0.01.
On to G5U C13A U20G C23U, for which the self-cleavage came out at 0.01.
Take G5U G36C U43C: the self-cleavage worked out at 0.02.
For G5U C15A G30A, the self-cleavage was 0.1.
For the variant G5U U20G G35C U43A, the self-cleavage came to 0.01.
Consider A6C A12G G19A C42G, for which the self-cleavage is 0.03.
As for G5U A11G C15A C23A G33C, the figure is 0; as for G5U C31G U34G G35A G44U, 0.02; as for G5U C8U A41C, 0.25.
G5U C10A C13A A14U C23G G30U: the self-cleavage came to 0.06.
Turning to G5U C13U C42A, the self-cleavage came to 0.03.
Take G5U A14C C31G: the self-cleavage was 0.03.
Turning to G5U C8A C10G C15G, the self-cleavage was 0.03.
Regarding G5U A14C C18U U20C, the self-cleavage is 0.06.
With G5U U9A C10A A25U, the self-cleavage was found to be 0.02.
With G5U A11U U28G C31A C46G, the self-cleavage was determined as 0.05.
As for G5U G22A G27C U34C C42G, the figure is 0.05; as for G5U C10A A25G C37A, 0.03; as for G5C U20C G29A, 0.03.
For G5C U9A C15A, the self-cleavage came out at 0.02.
As to G5C G36U C37A A41G, the self-cleavage amounted to 0.02.
Consider G5U G27A C42U U43G, for which the self-cleavage was 0.4.
G5U A6G G19U A24U G35U: the self-cleavage amounted to 0.04.
Consider G5U U9C A25C, for which the self-cleavage amounted to 0.02.
As for G5U C23U G40U, the self-cleavage was 0.03.
The value for G5C U9C C13G A16G G44A C45A was 0.01.
As to G5U G19A G33C U38C, the self-cleavage amounted to 0.01.
On to G5U C18A C45A, for which the self-cleavage stood at 0.05.
Consider A6C A16U U43A, for which the self-cleavage came to 0.04.
For A6C A14U C46G, the self-cleavage stood at 0.17.
For G5U A11U C13A G27C C31U A41C, the self-cleavage came out at 0.04.
As for G5C G30U U38C, the figure is 0.04; as for G5U G19U U28G A41G G44A, 0.01; as for G5C U20G G33U, 0.03.
The value for A6C A14U C42U was 0.11.
As to G5C U9A G19U C46G, the self-cleavage came to 0.52.
As for G5U G19A A25U U32C G33U C46U, the figure is 0.12; as for G5U G35C U38G G40U, 0.08; as for G5U U28C U38A, 0.08.
With G5U U9A G22A U32G, the self-cleavage is 0.06.
Turning to G5C U9A C46G, the self-cleavage stood at 0.02.
As to G5U C10U C23A U28G, the self-cleavage worked out at 0.03.
For G5U A16U U38A A39G, the self-cleavage was found to be 0.03.
For the variant G5U A11G G27U, the self-cleavage worked out at 0.02.
Consider G5C U28C G40C, for which the self-cleavage was determined as 0.05.
The value for G5U C23G A41G was 0.28; that for G5U C31A A41G was 0.07.
The value for G5U A11C A14U A16C A26C G27A C31U G35U was 0.01; that for G5U C15A G29C G33A A39C was 0.05; that for G5U C13U G30U C31G G44A was 0.01.
As for G5U A24G G29U, the figure is 0.12.
For G5U C31A C37G G44C C46G, the self-cleavage came to 0.04.
In the case of G5C U9A G33A, the self-cleavage stood at 0.02.
As for G5C U9C C10G U20G A26C U32G, the figure is 0.03; as for G5C G29U C37A G44U C45A, 0.07; as for G5U C18A G22C G30C U38G U43A, 0.
On to G5U G21A G29U C37A, for which the self-cleavage came to 0.06.
Take G5U C10G A11C U20G C23A U28C: the self-cleavage worked out at 0.01.
In the case of G5U G17U G22A C45A, the self-cleavage is 0.03.
With G5C U20A C23A G40A, the self-cleavage was found to be 0.13.
Consider G5U C8U U28G G30U C31U A39C, for which the self-cleavage was determined as 0.05.
As to A6C C8A C15A G44U, the self-cleavage amounted to 0.04.
Take G5U G17U G19A G33C C37A: the self-cleavage came to 0.08.
For the variant G5U C10U G17C G19U, the self-cleavage turned out to be 0.04.
On to A6C A16U U20C G33U, for which the self-cleavage is 0.04.
As for G5U C15A C46A, the self-cleavage was determined as 0.05.
On to G5U C10A G36C, for which the self-cleavage turned out to be 0.
For the variant G5U C10U C15A C23A C31A G36U, the self-cleavage came to 0.06.
In the case of G5U C10U C13A G22A C31G A41U, the self-cleavage is 0.04.
Consider A6C C8A G19A, for which the self-cleavage was determined as 0.82.
As to G5U A24C G27U, the self-cleavage is 0.01.
As for G5U A26G G29U, the self-cleavage stood at 0.07.
In the case of A6C A11C A25C G27C U32A G36C U38A, the self-cleavage is 0.
With G5U A6U U20G U34G, the self-cleavage was 0.
Regarding G5U G7C C10U G27A G29U, the self-cleavage was determined as 0.01.
As for G5U U20A A25G, the figure is 0.01.
Consider G5U G17A G21A G40U, for which the self-cleavage was found to be 0.06.
Regarding G5U U9A C10G C13U G40U C45U, the self-cleavage amounted to 0.01.
Consider G5U C18U G33C A41C, for which the self-cleavage came out at 0.06.
G5U A6G A14C G36C: the self-cleavage worked out at 0.12.
G5U G19C G27C U38G: the self-cleavage was determined as 0.
Consider G5U G21U C45U, for which the self-cleavage was 0.03.
As for G5U U20A C23A, the figure is 0.02; as for G5U G7C A16G C23G U32G G36A, 0.03.
Turning to G5C G40U C45A, the self-cleavage turned out to be 0.04.
For the variant A6C C8A C31A G44U, the self-cleavage amounted to 0.18.
Take A6C A12C G17A G21A G30A G35C: the self-cleavage was determined as 0.02.
Consider G5C G30U G33A G40U A41G, for which the self-cleavage came to 0.02.
As to G5U G21U U32C, the self-cleavage stood at 0.24.
The value for G5U U9C G17U C42A was 0.09; that for G5U G21A U34G was 0; that for G5U A14U G17A G29U G36C C37A was 0.07.
Turning to G5U G30U G35U, the self-cleavage was 0.02.
As for G5U C15A C18G A26C C45U, the figure is 0.21; as for G5U A26U G36A, 0.49.
In the case of G5U U28G G33A, the self-cleavage was found to be 0.
As to G5U C10A C13G A16C C23A, the self-cleavage came to 0.05.
In the case of G5U G7A C13U G19A U20A C37A A41C, the self-cleavage came to 0.23.
The value for G5U U9G G22A was 0.06.
A6C A12G A25C G29U C45G: the self-cleavage worked out at 0.05.
As to G5U G7U G19A G40A, the self-cleavage stood at 0.46.
As to G5C U20G U32A, the self-cleavage was 0.09.
G5U A16C U32G G36A C42A: the self-cleavage was determined as 0.07.
For the variant A6C A14G A24G U32G C42A, the self-cleavage stood at 0.05.
G5U U20A A26G: the self-cleavage was 0.02.
